# Source: the supplement of paper PMC8728848
# The list shows a part of the results.
# B1: MAL-II (Maackia amurensis), P93248 (protein)
# chain: ATSNSKPTQVLLATFLTFFFLLLNNVNSSDELSFTINNFVPNEADLLFQGEASVSSTGVLQLTRVENGQPQQYSVGRALYAAPVRIWDNTTGSVASFSTSFTFVVKAPNPTITSDGLAFFLAPPDSQIPSGRVSKYLGLFNNSNSDSSNQIVAVEFDTYFGHSYDPWDPNYRHIGIDVNGIESIKTVQWDWINGGVAFATITYLAPNKTLIASLVYPSNQTSFIVAASVDLKEILPEWVRVGFSAATGYPTQVETHDVLSWSFTSTLEANSDAATENNVHIARYTA
# Tests used:
# Test in all cases: glycan array binding signal (z-score within array); higher = stronger binding
# Settings in all cases: glycan notation: IUPAC condensed, linker removed
# Gal3S6S(b1-4)GlcNAc = biological target: Gal3S6S(b1-4)GlcNAc
# How it was run: (§1)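 The Consortium for Functional Glycomics database supplied 3228 glycan arrays, of which those lacking an available protein sequence were dropped. The binding signal, a within-array Z-score, was averaged across arrays of the same protein sequence and across linkers. Negative scores can be read as non-binding.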
# Gal3S6S(b1-4)GlcNAc6S = biological target: Gal3S6S(b1-4)GlcNAc6S
# How it was run: as §1
# Gal4S(b1-4)GlcNAc = biological target: Gal4S(b1-4)GlcNAc
# How it was run: as §1
# Gal4S6S(b1-4)GlcNAc = biological target: Gal4S6S(b1-4)GlcNAc
# How it was run: as §1
# Gal6P(b1-4)GlcNAc = biological target: Gal6P(b1-4)GlcNAc
# How it was run: as §1
# Gal6S(b1-3)GlcNAc = biological target: Gal6S(b1-3)GlcNAc
# How it was run: as §1
# Gal6S(b1-3)GlcNAc6S = biological target: Gal6S(b1-3)GlcNAc6S
# How it was run: as §1
# Gal6S(b1-4)Glc = biological target: Gal6S(b1-4)Glc
# How it was run: as §1
# Gal6S(b1-4)Glc6S = biological target: Gal6S(b1-4)Glc6S
# How it was run: as §1
# Gal6S(b1-4)GlcNAc = biological target: Gal6S(b1-4)GlcNAc
# How it was run: as §1
# Gal6S(b1-4)GlcNAc6S = biological target: Gal6S(b1-4)GlcNAc6S
# How it was run: as §1
# GalNAc(a1-3)Gal = biological target: GalNAc(a1-3)Gal
# How it was run: as §1
# GalNAc(a1-3)GalNAc = biological target: GalNAc(a1-3)GalNAc
# How it was run: as §1
# [1] = biological target: GalNAc(a1-3)GalNAc(a1-3)Gal(a1-4)Gal(b1-4)GlcNAc
# How it was run: as §1
# [2] = biological target: GalNAc(a1-3)GalNAc(b1-3)Gal(a1-4)Gal(b1-4)Glc
# How it was run: as §1
# GalNAc(b1-3)Gal = biological target: GalNAc(b1-3)Gal
# How it was run: as §1
# [3] = biological target: GalNAc(b1-3)Gal(a1-4)Gal(b1-4)GlcNAc
# How it was run: as §1
# [4] = biological target: GalNAc(b1-3)Gal(a1-4)Gal(b1-4)GlcNAc(b1-3)Gal(b1-4)Glc
# How it was run: as §1
# [5] = biological target: GalNAc(b1-3)Gal(a1-6)Gal(b1-4)Glc
# How it was run: as §1
# GalNAc(b1-3)GalNAc = biological target: GalNAc(b1-3)GalNAc
# How it was run: as §1
# GalNAc(b1-3)GlcNAc = biological target: GalNAc(b1-3)GlcNAc
# How it was run: as §1
# GalNAc(b1-4)Gal(b1-4)Glc = biological target: GalNAc(b1-4)Gal(b1-4)Glc
# How it was run: as §1
# GalNAc(b1-4)GlcNAc = biological target: GalNAc(b1-4)GlcNAc
# How it was run: as §1
# [6] = biological target: GalNAc(b1-4)GlcNAc(b1-2)Man
# How it was run: as §1
# [7] = biological target: GalNAc(b1-4)GlcNAc(b1-2)Man(a1-3)[GalNAc(b1-4)GlcNAc(b1-2)Man(a1-6)]Man(b1-4)GlcNAc(b1-4)GlcNAc
# How it was run: as §1
# [8] = biological target: GalNAc(b1-4)GlcNAc(b1-3)GalNAc(b1-4)GlcNAc
# How it was run: as §1
# GalNAc(b1-4)GlcNAc6S = biological target: GalNAc(b1-4)GlcNAc6S
# How it was run: as §1
# GalNAc(b1-6)GalNAc = biological target: GalNAc(b1-6)GalNAc
# How it was run: as §1
# GalNAc3S(b1-4)GlcNAc = biological target: GalNAc3S(b1-4)GlcNAc
# How it was run: as §1
# GalNAc3S(b1-4)GlcNAc3S = biological target: GalNAc3S(b1-4)GlcNAc3S
# How it was run: as §1
# [9] = biological target: GalNAc3S(b1-4)[Fuc(a1-3)]GlcNAc
# How it was run: as §1
# GalNAc4S6S(b1-4)GlcNAc = biological target: GalNAc4S6S(b1-4)GlcNAc
# How it was run: as §1
# GalNAc6S(b1-4)GlcNAc = biological target: GalNAc6S(b1-4)GlcNAc
# How it was run: as §1
# Glc(a1-4)Glc = biological target: Glc(a1-4)Glc
# How it was run: as §1
# [10] = biological target: Glc(a1-4)Glc(a1-4)Glc(a1-4)Glc
# How it was run: as §1
# Glc(a1-6)Glc(a1-6)Glc = biological target: Glc(a1-6)Glc(a1-6)Glc
# How it was run: as §1
# [11] = biological target: Glc(a1-6)Glc(a1-6)Glc(a1-6)Glc
# How it was run: as §1
# Glc(b1-4)Glc = biological target: Glc(b1-4)Glc
# How it was run: as §1
binder,measurement,setting,value
B1,glycan array binding signal (z-score),Gal3S6S(b1-4)GlcNAc,-0.222
same,glycan array binding signal (z-score),Gal3S6S(b1-4)GlcNAc6S,0.18
same,glycan array binding signal (z-score),Gal4S(b1-4)GlcNAc,-0.2
same,glycan array binding signal (z-score),Gal4S6S(b1-4)GlcNAc,-0.156
same,glycan array binding signal (z-score),Gal6P(b1-4)GlcNAc,-0.164
same,glycan array binding signal (z-score),Gal6S(b1-3)GlcNAc,-0.431
same,glycan array binding signal (z-score),Gal6S(b1-3)GlcNAc6S,-0.186
same,glycan array binding signal (z-score),Gal6S(b1-4)Glc,-0.207
same,glycan array binding signal (z-score),Gal6S(b1-4)Glc6S,-0.185
same,glycan array binding signal (z-score),Gal6S(b1-4)GlcNAc,-0.242
same,glycan array binding signal (z-score),Gal6S(b1-4)GlcNAc6S,-0.341
same,glycan array binding signal (z-score),GalNAc(a1-3)Gal,-0.218
same,glycan array binding signal (z-score),GalNAc(a1-3)GalNAc,-0.27
same,glycan array binding signal (z-score),[1],-0.278
same,glycan array binding signal (z-score),[2],-0.176
same,glycan array binding signal (z-score),GalNAc(b1-3)Gal,-0.245
same,glycan array binding signal (z-score),[3],-0.185
same,glycan array binding signal (z-score),[4],-0.107
same,glycan array binding signal (z-score),[5],-0.126
same,glycan array binding signal (z-score),GalNAc(b1-3)GalNAc,-0.083
same,glycan array binding signal (z-score),GalNAc(b1-3)GlcNAc,-0.211
same,glycan array binding signal (z-score),GalNAc(b1-4)Gal(b1-4)Glc,-0.041
same,glycan array binding signal (z-score),GalNAc(b1-4)GlcNAc,-0.214
same,glycan array binding signal (z-score),[6],-0.243
same,glycan array binding signal (z-score),[7],0.265
same,glycan array binding signal (z-score),[8],-0.156
same,glycan array binding signal (z-score),GalNAc(b1-4)GlcNAc6S,-0.292
same,glycan array binding signal (z-score),GalNAc(b1-6)GalNAc,-0.219
same,glycan array binding signal (z-score),GalNAc3S(b1-4)GlcNAc,-0.041
same,glycan array binding signal (z-score),GalNAc3S(b1-4)GlcNAc3S,-0.331
same,glycan array binding signal (z-score),[9],-0.316
same,glycan array binding signal (z-score),GalNAc4S6S(b1-4)GlcNAc,-0.378
same,glycan array binding signal (z-score),GalNAc6S(b1-4)GlcNAc,-0.323
same,glycan array binding signal (z-score),Glc(a1-4)Glc,-0.158
same,glycan array binding signal (z-score),[10],-0.199
same,glycan array binding signal (z-score),Glc(a1-6)Glc(a1-6)Glc,-0.168
same,glycan array binding signal (z-score),[11],-0.072
same,glycan array binding signal (z-score),Glc(b1-4)Glc,-0.155
